The values that follow come from article PMC12040169 (PLOS Biology, 2025).

This is one part of the list.

The assay concerns T1, C. trachomatis L2/434/Bu expressing GFP (CTL2-GFP).
T1 construct: L2/434/Bu GFP intracellular growth in HeLa cells
Further details: species or system HeLa; C. trachomatis total inclusion area by high-content imaging, normalised to DMSO. The settings on record: total inclusion area; 28.5 h, 10 µM; inhibitor. The procedure, abridged:
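Imaging read-out: GFP inclusions and Hoechst nuclei captured by high-content imaging after fixation. Inclusion area/number = chlamydial growth; nuclei count = host cell viability. MIC calculated per earlier method.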
In the case of `Cc1ccnc2nc(C(=O)OC(C)C(=O)c3ccc4c(c3)CCC4)nn12` (centres unmarked) [CBK304528], the “% of control remaining” value turned out to be 68.9285. In the case of `O=C1NN=C(Cc2ccccc2)C1c1ccccc1` (centres unmarked) [CBK067757], the “% of control remaining” value was determined as 95.7977.

Turning to `Cc1cc(C)cc(C(=O)N(CCc2ccccc2)C2CC3CCC(C2)N3C)c1` (centres unmarked) [CBK262612C], the “% of control remaining” value is given as 88.0901.

For the molecule `CCC1(CC)OC(N[C@@H](C)c2ccc3ccccc3c2)=NC1=O` [CBK123982], the “% of control remaining” value stood at 96.2763. Turning to `Cc1oc2ccc(O)cc2c1C(=O)NCCCN1CC(C)CC(C)C1` (centres unmarked) [CBK282161], the “% of control remaining” value is 100.075. To `Cc1nnc([C@H]2CCN(Cc3ccccc3)C2)o1` [CBK289390] belongs 115.233; to `O=C(O)/C(=N\O)c1ccc(CCc2ccccc2)s1` [CBK261213], 97.3654; to `O=C(NCc1ccc(N2CCCC2=O)cc1)c1cc(Br)ccc1O` [CBK296614], 68.1229. As for `O=C(CCCc1ccccc1)Nc1ccc(O)cc1C(=O)O` [CBK131699], the “% of control remaining” value was 109.63.

In the case of `CCCCN(Cc1ccc(C)s1)C(=O)C1CCc2nn(C)c(=O)n2C1` (centres unmarked) [CBK307360], the “% of control remaining” value is 38.8414. `CCn1cncc1CN(CCCn1ccnc1)CC1CC=CCC1` (centres unmarked) [CBK283220]: the “% of control remaining” value is 122.483. `O=C(Nc1cccc(C(=O)O)c1)/C(=C\c1ccc2c(c1)OCO2)NC(=O)c1ccccc1` [CBK263697]: the “% of control remaining” value is on record as 100.458.

As to `c1ccc(NCc2ncnc3c2ncn3C2CCCCO2)cc1` (centres unmarked) [CBK021593], the “% of control remaining” value was found to be 62.763. As for `CCN1C(=O)S/C(=C/c2ccc(OCc3cccc(C(=O)O)c3)cc2)C1=O` [CBK265605], the figure is 107.96; as for `CCC1CCCCN1Cc1nc2c(c(=O)n(C)c(=O)n2C)n1CCOC` (centres unmarked) [CBK305912], 84.1663. Take `COc1ccc(NC(=O)Nc2ccc3nc(C)c(C)nc3c2)cc1` [CBK265120]: the “% of control remaining” value came out at 84.7486. Take `CC(=O)NCCSc1nc2ccccc2nc1N1CCCC1` [CBK103696]: the “% of control remaining” value came out at 73.4165. With `O=S(=O)(CC(F)(F)F)Nc1ccc(-c2nnn[nH]2)cc1` [CBK154754], the “% of control remaining” value was determined as 98.1034. To `COc1cc(C(=O)N(Cc2ccco2)c2ccc(O)cc2)cc(OC)c1OC` [CBK266315] belongs 87.9211. Turning to `CC(C)(C)OC(=O)N1CCN(c2cncc(OC3CSCc4ccccc43)n2)CC1` (centres unmarked) [CBK172354], the “% of control remaining” value is 76.2364. Turning to `NS(=O)(=O)c1ccc(CCNC(=O)C2CC2)cc1` [CBK288407], the “% of control remaining” value worked out at 54.4701.

As for `Cc1cc(NC(=O)CN(C)C(=O)c2cnc(Cl)c(Cl)c2)no1` [CBK306132], the “% of control remaining” value turned out to be 57.6209. Consider `Cc1ccc(OCC(=O)N2CCN(C(=O)c3ccncc3)CC2)cc1` [CBK300480], for which the “% of control remaining” value worked out at 73.2215. `Cc1nn(CC(=O)N2CCCCC2C)c(=O)c2cc3sccc3n12` (centres unmarked) [CBK284141]: the “% of control remaining” value is given as 61.0257. Turning to `CC(C)N1CCC(C(=O)NC(=O)Nc2ccc3c(c2)OCCO3)CC1` [CBK034799], the “% of control remaining” value worked out at 96.5812. As to `CC(C)CNC(=S)N[C@H]1CC[C@@]2(c3cccnc3)CCN(Cc3ccccc3)[C@H]2C1` [CBK028460], the “% of control remaining” value is recorded as 64.7019. As for `COc1ccccc1-c1nccnc1N[C@H](C)c1ccccc1` [CBK038083], the “% of control remaining” value is 114.22.

In the case of `COCC(=O)NC(Cc1cccs1)c1nc(C)cs1` (centres unmarked) [CBK285004], the “% of control remaining” value worked out at 103.348. Turning to `O=C(CSc1nnc(-c2ccncc2)n1-c1ccccc1)N/N=C/c1c[nH]c2ccc(Br)cc12` [CBK262816], the “% of control remaining” value was 125.984. For `CC(=O)NCC(=O)N1CCCC2(C/C=C/COc3ccccc3C(=O)NCCNC2=O)C1` (centres unmarked) [CBK291991], the “% of control remaining” value was 126.466. On to `CC(C)(O)C1CCCN(C(=O)c2cc(COc3cccc(F)c3)[nH]n2)C1` (centres unmarked) [CBK306653], for which the “% of control remaining” value was determined as 34.6908. As for `Cc1noc(C)c1S(=O)(=O)n1c(=O)n(Cc2ccc(S(C)(=O)=O)cc2)c2ccccc21` [CBK106536], the figure is 78.4348. Take `COc1ccc(C2(C(=O)NCCN3CCCC3)CC2)cc1` [CBK149824]: the “% of control remaining” value was 90.0148. In the case of `Cc1nnc(C(C)Sc2nnc(N3CCC(C)CC3)n2Cc2ccco2)o1` (centres unmarked) [CBK298311], the “% of control remaining” value is 74.1723. Regarding `CC(=O)NC[C@H]1CN(c2ccc3c(c2)CCN(C(=O)Cc2ccccc2)CC3)C(=O)O1` [CBK018499], the “% of control remaining” value is reported as 0. Regarding `CCOC(=O)C1=C(Nc2ccc([N+](=O)[O-])cc2)S/C(=C\c2ccc(O)c(OC)c2)C1=O` [CBK263873], the “% of control remaining” value was 100.562. `CC(=O)N1CCCC1C(=O)N1CC(C(=O)Nc2nc3c(C)cc(C)cc3s2)C1` (centres unmarked) [CBK286039]: the “% of control remaining” value is 117.822. Consider `CCCC/C=C/c1cncc(N2CCN(C(=O)c3ccco3)CC2)n1` [CBK037918], for which the “% of control remaining” value is recorded as 134.323. For `Nc1ccc(Cc2ccc(N)c(O)c2)cc1O` [CBK261149], the “% of control remaining” value was 99.6761. As for `N#C/C(=C/c1ccc(-c2cc(C(=O)O)cc(C(=O)O)c2)o1)c1nc2ccccc2s1` [CBK266754], the figure is 73.4121; as for `COc1ccccc1-c1cc(Nc2ccc(NS(=O)(=O)c3ccc(C)cc3)cc2)ncn1` [CBK037819], 71.9626.

Turning to `CCOC(=O)c1cccc(-n2ncc(-c3ccc(F)cc3)n2)c1` [CBK112908], the “% of control remaining” value turned out to be 85.6977.

On to `O=C(c1nn2c(C(F)(F)F)cc(-c3ccccc3)nc2c1Br)N1CCCCC1` [CBK051497], for which the “% of control remaining” value amounted to 88.8136. Regarding `O=C(O)CNC(=O)/C(=C/c1ccc(Br)cc1)NC(=O)c1ccc(Br)o1` [CBK262537], the “% of control remaining” value came out at 103.431.

With `COc1ccccc1N1CCN(CCCCNC(=O)c2ccc(Cl)cc2)CC1` [CBK074835], the “% of control remaining” value amounted to 75.4747. As for `CC(C)(C)OC(=O)N1CCN(Cc2nc(-c3ccccc3)no2)CC1` [CBK306465], the figure is 57.7989; as for `O=C1NC2(CCCCC2)C(=O)N1c1cccc(Cl)c1` [CBK287969], 91.2601; as for `O=C(OCc1ccc(Sc2ccc([N+](=O)[O-])cc2Cl)cc1)c1cnccn1` [CBK268037], 102.215. Regarding `Cc1cc(C)n(-c2nc3c(c(=O)[nH]c(=O)n3C)n2CCc2ccccc2)n1` [CBK087129], the “% of control remaining” value is listed as 79.061. With `CC(NC(=O)C1(Cn2ccnc2)CC1)c1ccccc1-n1cccn1` (centres unmarked) [CBK307006], the “% of control remaining” value came out at 78.1138.
